Experimental findings from PubChem BioAssay AID488969 (Vanderbilt High Throughput Screening Facility, 2010) are described below.

Over roughly 110,000 compounds, “z-score” has its median near -0.1; the highest 2% begin near 2. This is one part of the list. Activity calls are given as the source filed them.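 The calls were made as follows: active = z-score in the third read window above 3 or below -3; inactive = the rest.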

The assay concerns the target Metabotropic glutamate receptor 8 (Rattus norvegicus) (UniProt P70579). Briefly: mGluR8 Gi/Go-coupled signaling modulation – cell-based, rat, thallium flux, HTS, primary screen (AID 488969). Conditions: HEK293 rat mGluR8, GIRK (G protein-gated inwardly rectifying potassium channel) thallium flux, FluoZin2; at 10 µM; stronger effect = higher value; submaximal glutamate (EC20) added with thallium.
UniProt P70579, sequence (P70579 whole entry, looked up): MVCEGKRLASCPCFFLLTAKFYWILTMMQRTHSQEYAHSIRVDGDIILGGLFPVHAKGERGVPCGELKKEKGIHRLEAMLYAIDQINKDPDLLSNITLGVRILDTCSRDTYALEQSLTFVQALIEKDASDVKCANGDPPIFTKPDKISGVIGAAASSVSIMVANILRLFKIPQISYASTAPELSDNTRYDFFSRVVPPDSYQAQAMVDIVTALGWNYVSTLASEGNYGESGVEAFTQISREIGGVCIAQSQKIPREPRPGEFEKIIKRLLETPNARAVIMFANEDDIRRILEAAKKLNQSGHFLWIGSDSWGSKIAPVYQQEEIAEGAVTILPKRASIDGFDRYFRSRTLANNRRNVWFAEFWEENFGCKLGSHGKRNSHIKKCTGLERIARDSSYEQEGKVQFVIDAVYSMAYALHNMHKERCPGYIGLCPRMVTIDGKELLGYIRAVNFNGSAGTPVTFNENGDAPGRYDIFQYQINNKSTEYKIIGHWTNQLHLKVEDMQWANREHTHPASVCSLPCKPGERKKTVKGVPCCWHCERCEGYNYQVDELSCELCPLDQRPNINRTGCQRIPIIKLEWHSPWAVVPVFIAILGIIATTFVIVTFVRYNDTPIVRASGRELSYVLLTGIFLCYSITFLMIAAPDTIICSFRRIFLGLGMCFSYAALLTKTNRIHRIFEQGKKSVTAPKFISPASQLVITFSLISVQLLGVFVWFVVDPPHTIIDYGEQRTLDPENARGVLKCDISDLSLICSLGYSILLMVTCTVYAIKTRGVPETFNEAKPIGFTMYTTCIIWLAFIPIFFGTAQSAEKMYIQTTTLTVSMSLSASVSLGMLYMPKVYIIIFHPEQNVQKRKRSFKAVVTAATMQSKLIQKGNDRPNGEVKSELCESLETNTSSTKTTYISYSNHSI
In turn, `O=C1c2ccccc2C(Nc2ccc3c(c2)OCCO3)N1Cc1ccco1` (centres undefined) yielded a z-score of -1.02.
Take `Cc1ccc(NC(=O)C(=S)NCc2ccco2)cc1`: the z-score is -0.0533.
`O=C(CN1C(=O)C2CCCN2c2ncc(Cl)cc21)NCc1ccc2c(c1)OCO2` (centres undefined) displayed a z-score of -0.228.
Regarding `COc1cccc2cc(C(=O)NCc3ccco3)c(=Nc3ccc(C(=O)O)cc3)oc12`, the z-score was -0.381.
`O=C1/C(=C\c2ccc(-c3ccccc3Cl)o2)SC(=S)N1CC1CCCO1` (centres undefined) gave a z-score of 0.755.
The compound `COc1ccc(C(=O)O)cc1Nc1cc(C)nc2ncnn12` registered a z-score of -0.682.
As for `O=C(COc1ccc(S(=O)(=O)N2CCCC2)cc1Cl)NCc1ccco1`, the figure is 0.784.
Take `c1ccc2c(CN3CCOCC3)c3ccccc3c(CN3CCOCC3)c2c1`: the z-score was -0.443.
The compound `COc1ccc(CCNC(=O)CSc2nc3c(c(=O)n(C)c(=O)n3C)n2C)cc1OC` yielded a z-score of -0.147.
In turn, `O=C(Nc1ccc(N2CCOCC2)c(Cl)c1)c1ccccc1F` had a z-score of -0.337.
The compound `CN(C)c1ccc(/C=C/C(O)=C2/C(=O)N(C)C3(C)CC2c2ccccc2O3)cc1` (centres undefined) came in with a z-score of -0.664.
The same measure for `Cc1nc2ccc(CCO)cc2s1`: -0.905; for `CCOC(=O)C1C(=O)CC(C)(O)C(C(=O)OCC)C1c1ccc(N(CC)CC)cc1` (centres undefined): -0.205; for `O=C(Nc1ccc(N2CCCCC2)c(Cl)c1)c1ccc(N2CCOCC2)c([N+](=O)[O-])c1`: 0.251.
On to `Cn1c(=O)c2c(nc(SCC(=O)NCC3CCCO3)n2C)n(C)c1=O` (centres undefined), for which the z-score was 0.254.
`CCCn1nnc(NC(=O)c2cc(Br)ccc2OC)n1` showed a z-score of -0.376.
The same measure for `CN(CC(=O)N1CCN(c2ccccn2)CC1)S(=O)(=O)c1ccccc1`: 0.121; for `Cc1cccc2cc(CN(Cc3cccs3)S(=O)(=O)c3ccc4c(c3)OCCO4)c(=O)[nH]c12`: -1.06.
As to `O=[N+]([O-])c1ccc(Sc2cccc3cccnc23)c([N+](=O)[O-])c1`, the z-score is 0.691.
As for `COc1ccc(/C=N/n2c(=O)[nH]c3c([nH]c4ccc(Br)cc43)c2=O)cc1CN1CCOCC1`, the z-score worked out at 0.012.
`O=C(OCCN1CCCCC1)c1ccc(Cl)cc1` displayed a z-score of 0.422.
Turning to `COc1ccc(N2CCN(C(=S)Nc3cccc(C)c3C)CC2)cc1`, the z-score is -0.0361.
Regarding `N#Cc1c(NC(=O)CN2CCOCC2)oc(-c2ccccc2)c1-c1ccccc1`, the z-score was -2.61.
Compound `CC1(C)CC(=O)C=C(NCc2ccccc2)C1` registered a z-score of -0.0068.
For the compound `CCCNc1nc(OCC(F)(F)F)nc(OCC(F)(F)F)n1`, the z-score was found to be 0.0542.
For `O=C(COc1ccc(Cl)cc1)Nc1nc(-c2ccc(S(=O)(=O)N3CCOCC3)cc2)cs1`, the z-score amounted to 0.354.
The compound `COc1ccc(C(=O)On2c(-c3ccc(Br)cc3)nc3ccccc3c2=O)cc1` displayed a z-score of 0.263.
Take `Cc1c(-c2ccccc2)nc(N)c(C#N)c1-c1cccs1`: the z-score is -0.169.
Take `O=C(c1cccs1)N1CCN(Cc2ccccc2[N+](=O)[O-])CC1`: the z-score is -0.09.
Regarding `Cc1ccc(N2CC(C(=O)NCc3cccs3)CC2=O)cc1` (centres undefined), the z-score was determined as 0.102.
On to `CCOC(=O)c1c(C)nc2c(c1-c1ccc(OC)c(OC)c1)C(=O)c1ccccc1-2`, for which the z-score is -0.263.
`COC(=O)c1c(-c2ccc(F)cc2)noc1N` registered a z-score of 0.173.
Compound `Cc1onc(-c2c(Cl)cccc2Cl)c1C(=O)N1CCCc2ccccc21` came in with a z-score of 1.15.
For `Cc1ccc(NC(C)C(=O)N/N=C/c2c[nH]c3ccccc23)cc1` (centres undefined), the z-score turned out to be 0.0754.
The compound `O=C(CSc1cc(Cl)ccc1Cl)NC1CCCc2ccccc21` (centres undefined) showed a z-score of -0.328.
Turning to `COc1ccccc1N1CCN(C(=O)CCn2c(=O)[nH]c3ccsc3c2=O)CC1`, the z-score was -2.41.
As for `N#Cc1c(SCC(N)=O)nsc1SCc1ccc(Cl)cc1`, the z-score turned out to be 0.0118.
Compound `COc1ccccc1NC(=O)C1CCCN(c2nc(C)cc(C)n2)C1` (centres undefined) displayed a z-score of -0.0699.
The same measure for `CCOC(=O)C1CCCN(C(=O)CN2C(=O)/C(=C/c3ccc(OC)cc3)Oc3ccccc32)C1` (centres undefined): -0.318; for `COC(=O)c1ccc(NC(=S)NC(=O)c2cc(-c3ccccc3)nc3ccccc23)cc1`: active: 8.36.
As to `O=C(c1ccc(Cl)cc1)N1CCC(O)(CSc2ccc(Cl)cc2Cl)CC1`, the z-score is -0.17.
In turn, `CCN(CC)CCCNC(=O)/C(=C\c1cccn1C)NC(=O)c1cccs1` showed a z-score of 0.845.
As to `O=C(COC(=O)c1cc(-c2ccncc2)nc2ccccc12)Nc1ccc2c(c1)OCO2`, the z-score is -0.286.
The compound `CNc1nnc(-c2cc3ccccc3oc2=O)s1` displayed a z-score of -0.268.
The compound `COc1ccc(CN2CN=C(Nc3nc4ccccc4s3)NC2)cc1` registered a z-score of -0.3.
The same measure for `CCc1cc2cc(C(=O)N3CCN(c4ccccc4)CC3)sc2s1`: -0.159; for `CCCc1nnc(NC(=O)CN2CCN(C)CC2)s1`: 1.46.
Compound `O=C(N/N=C/c1cccc(Oc2ccccc2)c1)c1cccc(Br)c1` displayed a z-score of -0.0718.
As for `CC(C)NC(=S)N/N=C/c1cc(Br)ccc1O`, the figure is active: 6.43.
On to `O=C1CC(N2CCN(c3nc4ccccc4s3)CC2)C(=O)N1c1ccc(F)cc1` (centres undefined), for which the z-score was active: 7.65.
For the compound `Cn1c(=O)c(C(=O)CN2CCOCC2)c(N)n(Cc2ccccc2)c1=O`, the z-score is -1.46.
As for `O=C(NCc1cccs1)c1cc2c(s1)-c1ccccc1OC2`, the figure is -0.399; as for `CNS(=O)(=O)c1ccc(C)cc1`, -0.457.
On to `c1cncc(CNc2ccc3c(c2)OCO3)c1`, for which the z-score was -0.179.
As to `O=c1[nH]c2ccc(Cl)cc2c(=O)n1Cc1ccco1`, the z-score is active: 5.27.
In the case of `NS(=O)(=O)c1cccc(NC(=O)COC(=O)c2cc(-c3ccc(Cl)cc3)nc3ccccc23)c1`, the z-score is -0.131.
`COC(=O)c1ccc2c(c1)C(=O)/C(=C/c1ccc(O)cc1)O2`: the z-score stood at 0.0618.
Regarding `COc1ccccc1NC(=O)c1ccccc1-c1nc(-c2ccccc2OC)no1`, the z-score is -0.893.
The same measure for `CCOC(=O)CSc1nnc(CNC(=O)c2ccc(S(=O)(=O)N3CCCC3)cc2)n1C`: -0.114; for `O=C(Nc1ccc(Cl)c(Cl)c1)N(CCCN1CCOCC1)Cc1cccs1`: -1.73; for `Cc1ccc(SCC(=O)c2sc(-c3ccccc3)nc2C)cc1`: 0.0558.
In turn, `C/C=C(\C)CN1CCN(c2ccccc2)CC1` gave a z-score of -0.218.
In turn, `CNC(=O)c1sccc1-n1cccc1` displayed a z-score of -0.172.
`O=C(O)/C(=C/c1cccnc1)NC(=O)c1ccccc1`: the z-score is -0.103.
The compound `O=C(CO)N/N=C/c1cccc(Cl)c1Cl` displayed a z-score of -0.381.
With `Cc1ccc(C)c(N2CCN(C(=O)c3csc4ccccc34)CC2)c1`, the z-score was -0.223.
In turn, `CCOc1cc(C(=S)N2CCC(O)CC2)ccc1OS(=O)(=O)c1ccc(Br)cc1` returned a z-score of 0.875.
`CCOC(=O)N1CCN(c2c(Nc3ccc4c(c3)OCCO4)c(=O)c2=O)CC1`: the z-score turned out to be 0.153.
For `CCC1=NN2C(=N)/C(=C\c3ccc(SCc4ccco4)o3)C(=O)N=C2S1`, the z-score is -0.171.
For `CCc1ccccc1NC(=O)CSc1nc2n[nH]c(C)c2c(=N)n1-c1cccc(OC)c1`, the z-score was 0.747.
Take `CC(C)CC(=O)Nc1ccccc1Oc1ccccc1`: the z-score is -0.262.
The same measure for `Cc1cccn2cc(CNC(=O)c3ccco3)nc12`: -0.251; for `COCCNC(=O)CN(c1cc(Cl)ccc1OC)S(C)(=O)=O`: 0.522.
For the compound `S=C(Nc1ccc(Cl)c(Cl)c1)NN1CCOCC1`, the z-score was -0.308.
For the compound `CCn1c(C)nc2cc(C(=O)NNS(=O)(=O)c3ccc(C)c(C)c3)ccc21`, the z-score is 0.342.
In turn, `CC1(C(=O)NC2CCCC2)CCC(=O)N1Cc1ccccc1` (centres undefined) yielded a z-score of -0.199.
In turn, `CCCNCc1cc(OC)c(OCCC)cc1Cl` yielded a z-score of 0.0157.
The same measure for `COc1ccc(CNC(=O)c2ccc(NS(=O)(=O)c3c(C)noc3C)cc2)cc1`: -0.283.
`O=C(CSc1nnnn1-c1ccc2c(c1)OCO2)NCc1ccccc1` showed a z-score of -0.347.
Take `O=S(=O)(c1ccc2c(c1)OCCCO2)N1CCNCC1`: the z-score was found to be 0.378.
On to `CCCc1ncc(C(O)c2cccc3ccccc23)n1C` (centres undefined), for which the z-score was 0.327.
In turn, `O=C(CSCc1ccccc1)N1CCN(c2cccc(C(F)(F)F)c2)CC1` had a z-score of -0.145.
As for `COc1ccc(OC)c(NC=C2C(=O)OC3(CCCCC3)OC2=O)c1`, the figure is -0.13.
Turning to `Cc1ccc(NS(=O)(=O)c2cc(NC(=O)C(C)Oc3ccccc3)ccc2C)c(C)c1` (centres undefined), the z-score was -0.313.
As for `Clc1ccc(C[n+]2cc(-c3ccccc3)n3c2CCC3)cc1Cl`, the figure is 0.393; as for `CCN(CC)S(=O)(=O)c1ccc(NC(=O)CN(c2ccc(OC)cc2OC)S(C)(=O)=O)cc1`, -0.467; as for `CCN1CCN(C(c2cccnc2)c2cc(Cl)c3cccnc3c2O)CC1` (centres undefined), -0.0956.
As for `COc1cc(C(=O)NCC(=O)N/N=C(/C)c2cccs2)cc(OC)c1OC`, the figure is 0.296; as for `OC1(c2cccc(F)c2)CCN(Cc2ccncc2)CC1`, -0.584.
The same measure for `COC(=O)c1sccc1N/N=C(\C)c1ccc(F)c(Cl)c1`: -0.08; for `Cc1ccc2c(c1)C1(SCCS1)C(=O)N2`: -0.0782.
In the case of `COC(=O)c1cc2c(C)cc3ccc(C)cn3c-2c1C(=O)OC`, the z-score is -0.336.
For the compound `CCCC1(C(=O)OCC)NC(c2ccc(N(C)C)cc2)C2C(=O)N(c3ccc(F)cc3)C(=O)C21` (centres undefined), the z-score is -0.0864.
For the compound `CCC(=O)OCCNc1cc(Sc2nc3ccccc3[nH]2)c2nonc2c1[N+](=O)[O-]`, the z-score is -0.718.
`S=C(NCc1ccc(Cl)cc1)Nc1ccccc1Cl` returned a z-score of 0.0964.
The compound `Cc1ccc(CN2C3=NC(=O)CN3c3ccccc32)cc1` displayed a z-score of -0.626.
As for `Cc1oc(-c2cccs2)nc1CS(=O)CC(=O)NCCc1ccccc1` (centres undefined), the figure is -0.142.
In turn, `COc1ccc(S(=O)(=O)N2CCCCCC2)cc1N(C)S(=O)(=O)c1ccccc1` had a z-score of -0.328.
Consider `CSc1cccc(NC(=O)C2CCN(S(=O)(=O)c3ccc(F)cc3)CC2)c1`, for which the z-score came out at 1.67.
Consider `COC(=O)c1sccc1NC(=O)CN(C)NS(=O)(=O)c1ccc([N+](=O)[O-])cc1`, for which the z-score was 0.0408.
`Cn1c(CN2CCOCC2)nc2cc(NC(=O)c3ccc(F)cc3)ccc21`: the z-score was 0.296.
With `Cc1ccccc1OCC(O)Cn1c(NCc2ccccc2)nc2c1c(=O)[nH]c(=O)n2C` (centres undefined), the z-score is 0.0947.
`CCOC(=O)/C(=C\c1ccc(OC(F)F)cc1)C1=Nn2c(nnc2-c2ccc(Cl)cc2)SC1` returned a z-score of -0.329.
Take `Fc1cccc(-c2oncc2-c2nnnn2-c2ccc(Cl)cc2)c1`: the z-score is -0.427.
`CCn1cc(S(=O)(=O)CC(=O)Nc2cc(C)ccc2C)c2ccccc21` yielded a z-score of 2.61.
Regarding `COc1ccc(-c2oc(NC(=O)CSc3nncn3C)c(C#N)c2-c2ccc(OC)cc2)cc1`, the z-score was -0.382.
Compound `COc1ccc(/C=C/C(=O)Oc2ccc(/C=N/NC(=O)c3ccccc3)cc2)cc1OC` registered a z-score of -0.147.
In turn, `CC(=O)N1N=C(c2ccc(Br)cc2)OC1(C)CC(=O)Nc1ccccc1` (centres undefined) had a z-score of -0.117.
Compound `COC(=O)c1cn(Cc2cccc(C)c2)nn1` yielded a z-score of 1.97.
